# Laboratory results taken from patent US20080242688A1, “Method 741” (ASTRAZENECA AB, priority 2007, published 2008).
# How the values were obtained:
# [1] = target: T1, human recombinant α7 receptor (Homo sapiens, UniProt P36544); assay: Whole cell current, Xenopus oocytes; type: cell-based; design: expressed in transfected cells; host or cells: Xenopus oocytes (mRNA injected); conditions: oocyte
# [2] = target: rat neuronal α7 receptors (Rattus norvegicus, UniProt Q05941); assay: Whole cell current, acutely dissociated rat hippocampal interneurons; type: cell-based; conditions: rat hippocampal neuron
# [3] = 1 month repeated-dose oral toxicity in the rat; conditions: both sexes, in vivo, 1-month rat toxicity study, read-out: NOAEL for renal tubule vacuolation
# [4] = Modified Irwin screen; type: in vivo; conditions: in vivo; rat, oral; read-out: NOAEL, Irwin screen / CNS function
# [5] = test system: rats; assay: Modified Irwin screen; type: in vivo; conditions: rat
# [6] = test system: marmoset monkeys; assay: Behavioral effects / tolerability in marmosets; type: in vivo; conditions: im
# [7] = test system: α7 receptors; assay: In vitro activation of α7 receptors (recombinant and native preparations); type: cell-based, human, or mouse; conditions: recombinant receptors in oocytes or HEK cells, native rat neurons, brain slices
# [8] = test system: α7 receptor; assay: Hippocampal slice fEPSP, PPF; type: cell-based; conditions: marmoset hippocampal slice, 5 μM
# [9] = target: T1, human recombinant α7 receptor; assay: [125I]-α-bungarotoxin (BTX) binding, α7-HEK membranes; design: expressed in transfected cells; host or cells: Xenopus oocytes (mRNA injected)
# [10] = Mass balance of [14C]-AZD0328 in rats; conditions: rat, in vivo, 2.16 mg/kg; fed rats, single and multiple oral doses (solution)
# Protocol: In the mass balance study conducted in fed rats, a Tmax of 0.5 h to 1 h was observed following single and multiple oral doses (solution). The bioavailability of AZD0328 (total radioactivity) in this study was >90%. […] Generally speaking, the elimination was complete within the 24-hour interval at the dose levels tested.
# Pharmacokinetics and mass balance of [^14C]-AZD0328 were investigated in rats. The excretion of [^14C]-AZD0328-derived radioactivity in rats was mainly through the kidney. Over the course of the study, radioactivity recovered in urine and feces accounted for approximately 85% and 8%, respectively.
# [11] = target: α7 receptor (Rattus norvegicus, UniProt Q05941); assay: Hippocampal slice fEPSP, PPF; type: cell-based; conditions: 5 μM
# [12] = test system: rhesus monkeys; assay: Intravenous self-administration (reinforcing potential); conditions: initial dose-finding study, one monkey, 34.8 mg/kg iv bolus
# [13] = Protein binding; type: in vitro ADME; conditions: across species including human; 21.6 to 21.630 ng/mL (0.1 to 100 μM)
structure (smiles),measurement,setting,value
"c1cnc2c(c1)C[C@@]1(CN3CCC1CC3)O2 [AZD0328, (R)-Spiro[1-azabicyclo[2.2.2]octane-3,2′(3′H)-furo[2,3-b]pyridine]]",EC50,[1]; human recombinant α7,1900 nM
same,Emax,"[1]; human recombinant α7, 10 μM, % of maximum acetylcholine response",70%
same,EC50,[2],400 nM
same,Emax,"[2]; read-out: Maximum Response, whole cell current",97%
same,NOAEL at 1 month,[3],2.2 mg/kg
same,NOAEL,[4],64.9 mg/kg
same,"dose with sedation, reduced traction response, lacrimation and salivation","[5]; in vivo, po",salivation at 194.7 mg/kg. At
same,mortality,"[5]; oral gavage, 259.5 mg/kg",259.5 mg/kg 1 of 6 animals died.
same,dose after which sedation was observed,"[5]; oral gavage, up to 4 h postdose",129.8 mg/kg up to 4 h postdose.
same,dose after which one animal defecated,[6]; marmoset,One animal defecated after 0.01 mg/kg
same,"doses after which salivation, vomiting, scratching, defecation and increased activity were observed",[6]; marmosets,administration with 0.03-3 mg/kg
same,concentration necessary to evoke any detectable activation of α7 receptors,[7],greater than 100 nM
same,fEPSP PPF,[8],123 % control P2:P1
same,Ki,[9],3 nM
same,Tmax,[10],30 to 60 min
same,fEPSP PPF,[11],121 % control P2:P1
same,mortality,[12],died within minutes.
same,fraction unbound,[13],> 0.85
